This note sets out measurements from patent US10954277B2, “Materials and methods for treating cancer” (Mayo Foundation for Medical Education and Research, priority 2016, dated 2021).

Assay [1] relates to pERK1/2. Kind of assay: Western blot analysis of pERK1/2 in cancer cell lines. For orientation: A western blot detects proteins with antibodies after separation by electrophoresis.
In assay [2] the test system is FOXO1. The assay is described as follows: Immunofluorescent cytochemistry of FOXO1 cellular localization. The class given is cell-based, human. The protocol:
A) Western blot analysis of IQGAP1 protein expression in prostate cancer cell lines LNCaP, C4-2 and C4-2B. ERK2 was used as loading control. The density of IQGAP1 was determined by normalizing to ERK2 first and then to the normalized value in LNCaP cells.
Briefly, cells were rinsed in PBS, fixed in 4% paraformaldehyde for 15 minutes and washed in PBS three times. Fixed cells were permeabilized with 0.2% Triton X-100 for 20 minutes, washed in PBS and then blocked in PBS supplemented with 5% goat serum and 10% glycerol. Cells were incubated with indicated primary antibody at 4° C. overnight. Cells were washed three times with PBS and incubated with secondary antibody that was conjugated with Alexa Fluor 488 (Thermo Fisher Scientific) for 1 hour at room temperature. After the final wash, cells were counterstained with Vectashield (Vector Laboratories) containing DAPI (4′, 6-diamidino-2-phenylindole). Images were captured using Zeiss laser confocal microscope (LSM780).

In assay [3] the test system is p27KIP1. Kind of assay: Western blot analysis of p27KIP1 in cancer cell lines. The class given is cell-based, human. The source says:
(§1) Short exp., short exposure.

Assay [4] deals with pAKT. The assay is described as follows: Western blot analysis of pAKT in cancer cell lines. It counts as cell-based, human.
The test system of assay [5] is FOXO1. The assay is described as follows: Western blot analysis of FOXO1 phosphorylation at T24 and S256. It counts as cell-based, human. The conditions noted are these: LNCaP and BT474 cells, paclitaxel 10 nM 24 hours.
Assay [6] relates to LNCaP cells. Kind of assay: MTS cell viability assay in LNCaP cells. It counts as cell-based, human. The settings on record: MK2206 treatment alone, 0.5 μM.
In assay [7] the test system is PC-3-Luc cells. The assay is described as follows: MTS assay in PC-3-Luc cells. It counts as cell-based, human. The conditions noted are these: DTX 10 nM alone. The protocol:
Cell growth was measured by absorbance using the MTS assay according to manufacturer's instructions (Promega). Cells were plated in 96-well plates at a density of 1,000 cells per well. At the indicated time points, 20 μl of CellTiter 96R AQueous One Solution reagent (Promega) was added to cells; after incubating for 60 minutes at 37° C., cell growth was measured in a microplate reader at 490 nm.

The subject of assay [8] is pERK1/2. Kind of assay: Immunofluorescent histochemistry of p-ERK in PC-3 mouse xenografts. The conditions noted are these: PC-3 xenografts in mice, DTX 5 mg/kg intravenous twice a week.
Assay [9] concerns PC-3-Luc xenografts. The assay is described as follows: PC-3-Luc prostate cancer xenografts in NSG mice, luminescent imaging. The settings on record: DTX 5 mg/kg intravenous twice a week, empty vector xenografts. The class given is in vivo.
Description: as §1
The animal study was approved by IACUC.

The mark [10] stands for this setting: C4-2B cells, 24 hours, MK2206 0.5 μM or NVP-BEZ235 50 nM.
The mark [11] stands for this setting: C4-2 cells, 24 hours, MK2206 0.5 μM or NVP-BEZ235 50 nM.
[12] abbreviates: LNCaP cells, 24 hours, MK2206 0.5 μM or NVP-BEZ235 50 nM.
[13] abbreviates: LNCaP and BT474 cells, paclitaxel 10 nM 24 hours.

As for `C[C@@H]1C[C@@H]([C@H](O)CC2CC(=O)NC(=O)C2)C(=O)[C@@H](C)C1` [cycloheximide], the “reduction in MK2206-induced pERK1/2” value in [1] (LNCaP cells, CHX 20 μg/ml 30 minutes pre-treatment, then MK2206 0.5 μM 24 hours) is recorded as “approximately 50%”. In assay [1] (LNCaP cells, CHX treatment alone (20 μg/ml)), the pERK1/2 result is “No effect”. Also, the FOXO1 nuclear localization result in assay [2] (LNCaP cells, CHX treatment alone (20 μg/ml, 24 hours)) is “No effect”. For the same compound, in assay [3] (LNCaP cells, CHX 20 μg/ml with or without MK2206), the “induction of p27KIP1” value is given as “blockage of induction of p27KIP1”.
For the compound `Cn1c(=O)n(-c2ccc(C(C)(C)C#N)cc2)c2c3cc(-c4cnc5ccccc5c4)ccc3ncc21` [NVP-BEZ235], the pERK1/2 result in assay [1] (setting [10]) is recorded as “almost none”; in [1] (setting [11]), “very limited”. Further, the “nuclear localization of FOXO1” value in [2] (setting [12]) was “induced nuclear localization of FOXO1”.
On to `CC(=O)O[C@H]1C(=O)[C@@]2(C)[C@H]([C@H](OC(=O)c3ccccc3)[C@]3(O)C[C@H](OC(=O)[C@H](O)[C@@H](NC(=O)c4ccccc4)c4ccccc4)C(C)=C1C3(C)C)[C@]1(OC(C)=O)CO[C@@H]1C[C@@H]2O` [paclitaxel], for which the pAKT entry in assay [4] (setting [13]) is on record as “induced inhibition of pAKT”. Besides, the “phosphorylation of the 14-3-3 binding sites (T24 and S256) of FOXO1” value in assay [5] is reported as “decreased phosphorylation”. The pERK1/2 entry in assay [1] (setting [13]) is recorded as “increase in pERK1/2”. Further, the “nuclear localization of FOXO1” value in [2] (setting [13]) is recorded as “nuclear localization of FOXO1”. In assay [3] (setting [13]), the p27KIP1 result is given as “transactivation of p27KIP1”.
With `NC1(c2ccc(-c3nc4ccn5c(=O)[nH]nc5c4cc3-c3ccccc3)cc2)CCC1` [MK2206], the pAKT entry in [4] (LNCaP, C4-2 and C4-2B cells, MK2206 0.5 μM, 24 hours) is “inhibition of pAKT”. The pERK1/2 result in assay [1] (setting [10]), in assay [1] (setting [11]) and in [1] (setting [12]) was “increased pERK1/2” in each case. Further, the “nuclear localization of FOXO1” value in assay [2] (setting [12]) is listed as “induced nuclear localization of FOXO1”. Also, the LNCaP cell growth result in assay [6] is recorded as “only transiently decreased LNCaP cell growth”.
For the compound `CC(=O)O[C@@]12CO[C@@H]1C[C@H](O)[C@@]1(C)C(=O)[C@H](O)C3=C(C)[C@@H](OC(=O)[C@H](O)[C@@H](NC(=O)OC(C)(C)C)c4ccccc4)C[C@@](O)([C@@H](OC(=O)c4ccccc4)[C@H]21)C3(C)C` [DTX, docetaxel], the “tumor growth in vitro” value in [7] is “failed to completely block tumor growth”. For the same compound, the pERK1/2 result in assay [8] is “increased pERK1/2”. Besides, in assay [9], the “tumor growth in vivo” value is on record as “failed to completely block tumor growth”.
As to “epidermal growth factor: growth factor used to induce pERK1/2 in C4-2 cells (NSDSECPLSHDGYCLHDGVCMYIEALDKYACNCVVGYIGERCQYRDLKWWELR; Epidermal growth factor; UniProt P01133 971-1023, looked up)”, the pERK1/2 result in assay [1] (C4-2 cells, 10 ng/mL for 10 minutes) is recorded as “induced pERK1/2”.
